The other results are listed elsewhere or left out.
target: PPARg (Homo sapiens) (UniProt P37231); conditions: 180 nM, no RXRa, PBS pH 7.4, 2% milk, 0.02% Triton X-100, 1 mM DTT, BSA, 0.4 mg/ml salmon testes DNA; double strand, one strand shown
Sequence of UniProt P37231 (P37231 29-505): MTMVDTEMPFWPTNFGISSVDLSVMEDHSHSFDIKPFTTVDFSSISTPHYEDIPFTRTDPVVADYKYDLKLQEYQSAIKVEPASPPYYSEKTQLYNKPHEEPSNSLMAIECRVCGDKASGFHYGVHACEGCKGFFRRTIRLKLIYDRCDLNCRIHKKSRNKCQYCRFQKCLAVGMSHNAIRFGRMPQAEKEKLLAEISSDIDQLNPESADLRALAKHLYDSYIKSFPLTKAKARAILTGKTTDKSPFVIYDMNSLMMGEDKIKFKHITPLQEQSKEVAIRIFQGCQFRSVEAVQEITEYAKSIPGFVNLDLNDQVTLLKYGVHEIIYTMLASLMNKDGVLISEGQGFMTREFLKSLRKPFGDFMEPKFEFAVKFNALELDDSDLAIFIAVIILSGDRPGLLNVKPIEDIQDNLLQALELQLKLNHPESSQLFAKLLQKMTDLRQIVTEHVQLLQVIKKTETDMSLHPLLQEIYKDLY

Sequence | binding signal (PBM z-score against 500 random probes)
GCTGATGGGCTTCAAGTTGCTAACCCAGGAAATGGAGCGATTGACAGCGTAGAATGAAGG | 0.11
GCAAGAGAGAGACACAATGGCTAAAGAAGGAAGAGTGCGATTGACAGCGTAGAATGAAGG | 0.01
GCAGGGATGAATAGATCGAAGTTACTGCCCATTCAAGCGATTGACAGCGTAGAATGAAGG | 0.15
GCCACACCCAGCCTTAGGCATAGTGGCTCATGGTAGGCGATTGACAGCGTAGAATGAAGG | -0.58
GCCTGGCTGGGCATGGTGGCTCATGCCTGTAATCCCGCGATTGACAGCGTAGAATGAAGG | -1.11
GCCACACTTGCAGAGGAGAAAGGAGTTTGGAAAGCCGCGATTGACAGCGTAGAATGAAGG | 0.32

target: T1, PXR (Homo sapiens) (UniProt O75469); conditions: 270 nM, no RXRa, PBS pH 7.4, 2% milk, 0.02% Triton X-100, 1 mM DTT, BSA, 0.4 mg/ml salmon testes DNA; double strand, one strand shown
T1 sequence: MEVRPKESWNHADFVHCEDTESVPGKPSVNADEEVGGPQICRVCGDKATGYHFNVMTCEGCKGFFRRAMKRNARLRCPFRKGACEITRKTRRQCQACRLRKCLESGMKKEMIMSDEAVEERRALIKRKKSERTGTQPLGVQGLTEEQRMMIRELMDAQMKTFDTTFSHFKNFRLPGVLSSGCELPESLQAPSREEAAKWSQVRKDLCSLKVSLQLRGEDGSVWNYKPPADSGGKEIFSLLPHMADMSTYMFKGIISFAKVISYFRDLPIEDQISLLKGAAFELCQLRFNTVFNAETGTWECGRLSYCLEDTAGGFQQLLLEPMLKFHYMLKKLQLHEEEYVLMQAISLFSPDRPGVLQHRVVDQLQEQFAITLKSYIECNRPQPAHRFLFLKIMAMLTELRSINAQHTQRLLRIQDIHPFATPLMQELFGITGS

Sequence | binding signal (PBM z-score against 500 random probes)
GCCATGTCACCTCCCTGAGGTGCAGTTTGCTTCAAGGCGATTGACAGCGTAGAATGAAGG | -0.62
GCGACTCAGACACTGCTGGCACCCGACACTGCTCTCGCGATTGACAGCGTAGAATGAAGG | -0.03
GCTGATGGGCTTCAAGTTGCTAACCCAGGAAATGGAGCGATTGACAGCGTAGAATGAAGG | -0.15
GCGGGAGGGCACAGTAAGCACACTGAGCCCTTCCGGGCGATTGACAGCGTAGAATGAAGG | 0.13
GCTGAGGTGCTTCAGAGATGTCCACTCCTGCTGGCTGCGATTGACAGCGTAGAATGAAGG | -0.88
GCAGGGATGAATAGATCGAAGTTACTGCCCATTCAAGCGATTGACAGCGTAGAATGAAGG | 0.27
GCACAGAAATGAAATGGGCTATAGAGCTCATCTTCTGCGATTGACAGCGTAGAATGAAGG | -0.36
GCGGTGTCGTGTGCCTGTGATCCCAGCTACGCAGGCGCGATTGACAGCGTAGAATGAAGG | -0.19
GCGGTTGAATGCCCAGATAGTACACACACCAAGCTTGCGATTGACAGCGTAGAATGAAGG | 0.37
GCAGCTCCACTTCATGCCAGGCCTGGGCTAGAGGCTGCGATTGACAGCGTAGAATGAAGG | -0.72
GCTGCAGAGAGGCCACCAGCCAGCCCAGACCCATGCGCGATTGACAGCGTAGAATGAAGG | -0.81
GCCACATGAAAGCTGACAACAGAAGCACTCCAACACGCGATTGACAGCGTAGAATGAAGG | 0.49
GCTAGATATGAGTCTGGCTTGCTGCTATCTACTTCAGCGATTGACAGCGTAGAATGAAGG | -0.29
GCGAGATGCAGCCAACCTGTAGAGATCCTGTGGAGAGCGATTGACAGCGTAGAATGAAGG | -0.52
GCCTCAGGCTGAGTTGTGGTAGTGTAATCATAGCTCGCGATTGACAGCGTAGAATGAAGG | -0.4
GCGCCTTGTCCTTCTGCAGCTGCTGGTGCAGCCCAGGCGATTGACAGCGTAGAATGAAGG | -1.34
GCACACTGACAATAGCATACACCTTTCCAGAATGCGGCGATTGACAGCGTAGAATGAAGG | 0.22
GCAGCCATATGCAAATGAGTACATCCTGTGTGATTCGCGATTGACAGCGTAGAATGAAGG | 0.04
GCCAGTGATGCACACCTGTAACCCTAGCACTTTGGGGCGATTGACAGCGTAGAATGAAGG | -0.32
GCTTCCAGAATCAGACAATCACTGGGCTTGAACCAGGCGATTGACAGCGTAGAATGAAGG | -0.24
GCCAGTACTGTTGCTAGAACTACAACCTGTATGCTGGCGATTGACAGCGTAGAATGAAGG | -0.67
GCACACAGAGAAACTCTTGCCAGTAGCAGTAGTACCGCGATTGACAGCGTAGAATGAAGG | -0.07

target: T2, RARa (Homo sapiens) (UniProt P10276); conditions: 270 nM, no RXRa, PBS pH 7.4, 2% milk, 0.02% Triton X-100, 1 mM DTT, BSA, 0.4 mg/ml salmon testes DNA; double strand, one strand shown
T2 sequence: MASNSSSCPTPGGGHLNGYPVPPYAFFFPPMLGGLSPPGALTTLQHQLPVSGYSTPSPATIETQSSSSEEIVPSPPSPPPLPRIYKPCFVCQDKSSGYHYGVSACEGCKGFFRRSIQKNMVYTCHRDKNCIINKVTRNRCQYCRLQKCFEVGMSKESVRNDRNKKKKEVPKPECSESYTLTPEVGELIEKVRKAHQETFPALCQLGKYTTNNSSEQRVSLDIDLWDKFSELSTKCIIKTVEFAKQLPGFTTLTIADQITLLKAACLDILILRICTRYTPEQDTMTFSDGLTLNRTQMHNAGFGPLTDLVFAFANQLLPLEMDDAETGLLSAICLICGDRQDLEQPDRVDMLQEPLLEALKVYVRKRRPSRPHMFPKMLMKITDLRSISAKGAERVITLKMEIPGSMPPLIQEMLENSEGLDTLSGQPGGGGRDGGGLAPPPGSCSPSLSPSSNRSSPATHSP

Sequence | binding signal (PBM z-score against 500 random probes)
GCCATGTCACCTCCCTGAGGTGCAGTTTGCTTCAAGGCGATTGACAGCGTAGAATGAAGG | -0.62
GCAGATGGGAGAGTTCCCTTGATTCCTTTGTGGGAGGCGATTGACAGCGTAGAATGAAGG | 0.21
GCGAAACTGCTGCAAAGGCCTACTGAAGCCTGACTGGCGATTGACAGCGTAGAATGAAGG | -0.75
GCAAAGGCCTGAGAACCAGGACCTCCAGTGTCCTCAGCGATTGACAGCGTAGAATGAAGG | -1.48
GCGTGTTCTACTGTACTGCAGCTGAGCCGACACTCAGCGATTGACAGCGTAGAATGAAGG | -0.16
GCGGAGGCTGAGGCAGGAGAATCGCTTGAACCTGGGGCGATTGACAGCGTAGAATGAAGG | -0.98
GCTGTGTCACCATGAGCAATCCAACCAGGCATCCCAGCGATTGACAGCGTAGAATGAAGG | -0.02
GCGAAGGAGTTCTTATCTGGCCAGTTCCCATCCTGTGCGATTGACAGCGTAGAATGAAGG | -0.54
GCTGGTGGAGCTTATCTTGAAGTAGTTTCCTAAGAGGCGATTGACAGCGTAGAATGAAGG | 0.31
GCCAGGAGTTCAAGACCAGCCTGGTCAACATGGTGAGCGATTGACAGCGTAGAATGAAGG | -0.09
GCGCCTCAGTCATGAGTCACATGAAAGTGACTCACCGCGATTGACAGCGTAGAATGAAGG | -0.91
GCCTCAGGCTGAGTTGTGGTAGTGTAATCATAGCTCGCGATTGACAGCGTAGAATGAAGG | -0.24
GCGCCTTGTCCTTCTGCAGCTGCTGGTGCAGCCCAGGCGATTGACAGCGTAGAATGAAGG | -2.04
GCCTCTTTGCCTGCTGCCATCCATGTAAGATGTGAGGCGATTGACAGCGTAGAATGAAGG | 0.5
GCGCAGGGACTATGTGCATTAGGCCAGTTCCTCATGGCGATTGACAGCGTAGAATGAAGG | -1.32
GCCACACTTGCAGAGGAGAAAGGAGTTTGGAAAGCCGCGATTGACAGCGTAGAATGAAGG | 0.05

Reference: PMC6555819
